The results in this text go back to patent publication US20250163166A1 (REGENECORE BIOTECH, published 2025).

The Kd is the constant that tells how readily two partners part at equilibrium. A low value points to higher affinity.

The chains are these.
B1: bispecific antibody BM#33 against CD33 and CD123 (bispecific antibody, human IgG1)
chain 1: QVQLVESGGGSVQAGGSLRLSCAASGYTYSSTCIGWFRQAPGKDREGVAFAYTGGGVTYADSVKGRFTISQDNAKNTVHLIMNSLKPEDTAMYYCAAKTRGGCWAAAAFYNYWGQGTQVTVSS[human IgG1 Fc with T366D (EU numbers) left out here]
chain 2: QVQLVESGGGSVQAGGSLKLSCAASRFIFSRCGMGWFRQAPGKERELVSTISGDGTTFYADSVKGRFTISQHNAATTLYLQMNSLKLEDTAVYYCAADCYNRKYWGQGTQVTVSS[human IgG1 Fc with Y407K (EU numbers) left out here]
notes: VHH-Fc heterodimer
B2: bispecific antibody BM#20 against CD33 and CD123 (bispecific antibody, human IgG1)
chain 1: QVQLVESGGGSVQAGGSLRLSCAASGYTYSSTCIGWFRQAPGKDREGVAFAYTGGGVTYADSVKGRFTISQDNAKNTVHLIMNSLKPEDTAMYYCAAKTRGGCWAAAAFYNYWGQGTQVTVSS[human IgG1 Fc with K360D T366V (EU numbers) left out here]
chain 2: QVQLVESGGGSVQAGGSLKLSCAASRFIFSRCGMGWFRQAPGKERELVSTISGDGTTFYADSVKGRFTISQHNAATTLYLQMNSLKLEDTAVYYCAADCYNRKYWGQGTQVTVSS[human IgG1 Fc with Q347R Y407A (EU numbers) left out here]
notes: VHH-Fc heterodimer; also called BM-RT2831-#20
B3: bispecific antibody BM#25 against CD33 and CD123 (bispecific antibody, human IgG1)
chain 1: QVQLVESGGGSVQAGGSLRLSCAASGYTYSSTCIGWFRQAPGKDREGVAFAYTGGGVTYADSVKGRFTISQDNAKNTVHLIMNSLKPEDTAMYYCAAKTRGGCWAAAAFYNYWGQGTQVTVSS[human IgG1 Fc with E357D D399K (EU numbers) left out here]
chain 2: QVQLVESGGGSVQAGGSLKLSCAASRFIFSRCGMGWFRQAPGKERELVSTISGDGTTFYADSVKGRFTISQHNAATTLYLQMNSLKLEDTAVYYCAADCYNRKYWGQGTQVTVSS[human IgG1 Fc with K370Y K409D (EU numbers) left out here]
notes: VHH-Fc heterodimer; also called BM-RT2831-#25
B4: bispecific antibody BM#10 against CD33 and CD123 (bispecific antibody, human IgG1)
chain 1: QVQLVESGGGSVQAGGSLRLSCAASGYTYSSTCIGWFRQAPGKDREGVAFAYTGGGVTYADSVKGRFTISQDNAKNTVHLIMNSLKPEDTAMYYCAAKTRGGCWAAAAFYNYWGQGTQVTVSS[human IgG1 Fc with Q347R T366V (EU numbers) left out here]
chain 2: QVQLVESGGGSVQAGGSLKLSCAASRFIFSRCGMGWFRQAPGKERELVSTISGDGTTFYADSVKGRFTISQHNAATTLYLQMNSLKLEDTAVYYCAADCYNRKYWGQGTQVTVSS[human IgG1 Fc with K360D Y407A (EU numbers) left out here]
notes: VHH-Fc heterodimer; also called BM-RT2831-#10
B5: bispecific antibody BM#6 against CD33 and CD123 (bispecific antibody, human IgG1)
chain 1: QVQLVESGGGSVQAGGSLRLSCAASGYTYSSTCIGWFRQAPGKDREGVAFAYTGGGVTYADSVKGRFTISQDNAKNTVHLIMNSLKPEDTAMYYCAAKTRGGCWAAAAFYNYWGQGTQVTVSS[human IgG1 Fc with E357D T366W (EU numbers) left out here]
chain 2: QVQLVESGGGSVQAGGSLKLSCAASRFIFSRCGMGWFRQAPGKERELVSTISGDGTTFYADSVKGRFTISQHNAATTLYLQMNSLKLEDTAVYYCAADCYNRKYWGQGTQVTVSS[human IgG1 Fc with T366S L368A K370Y Y407V (EU numbers) left out here]
notes: VHH-Fc heterodimer; also called BM-RT2831-#6
B6: bispecific antibody BM#9 against CD33 and CD123 (bispecific antibody, human IgG1)
chain 1: QVQLVESGGGSVQAGGSLRLSCAASGYTYSSTCIGWFRQAPGKDREGVAFAYTGGGVTYADSVKGRFTISQDNAKNTVHLIMNSLKPEDTAMYYCAAKTRGGCWAAAAFYNYWGQGTQVTVSS[human IgG1 Fc with E357D T366V (EU numbers) left out here]
chain 2: QVQLVESGGGSVQAGGSLKLSCAASRFIFSRCGMGWFRQAPGKERELVSTISGDGTTFYADSVKGRFTISQHNAATTLYLQMNSLKLEDTAVYYCAADCYNRKYWGQGTQVTVSS[human IgG1 Fc with K370Y Y407A (EU numbers) left out here]
notes: VHH-Fc heterodimer; also called BM-RT2831-#9
B7: bispecific antibody BM#11 against CD33 and CD123 (bispecific antibody, human IgG1)
chain 1: QVQLVESGGGSVQAGGSLRLSCAASGYTYSSTCIGWFRQAPGKDREGVAFAYTGGGVTYADSVKGRFTISQDNAKNTVHLIMNSLKPEDTAMYYCAAKTRGGCWAAAAFYNYWGQGTQVTVSS[human IgG1 Fc with T366W K409W (EU numbers) left out here]
chain 2: QVQLVESGGGSVQAGGSLKLSCAASRFIFSRCGMGWFRQAPGKERELVSTISGDGTTFYADSVKGRFTISQHNAATTLYLQMNSLKLEDTAVYYCAADCYNRKYWGQGTQVTVSS[human IgG1 Fc with T366S L368A D399V F405T Y407V (EU numbers) left out here]
notes: VHH-Fc heterodimer
B8: bispecific antibody BM#37 against CD33 and CD123 (bispecific antibody, human IgG1)
chain 1: QVQLVESGGGSVQAGGSLRLSCAASGYTYSSTCIGWFRQAPGKDREGVAFAYTGGGVTYADSVKGRFTISQDNAKNTVHLIMNSLKPEDTAMYYCAAKTRGGCWAAAAFYNYWGQGTQVTVSS[human IgG1 Fc with Q347M (EU numbers) left out here]
chain 2: QVQLVESGGGSVQAGGSLKLSCAASRFIFSRCGMGWFRQAPGKERELVSTISGDGTTFYADSVKGRFTISQHNAATTLYLQMNSLKLEDTAVYYCAADCYNRKYWGQGTQVTVSS[human IgG1 Fc with K360W (EU numbers) left out here]
notes: VHH-Fc heterodimer; also called BM-RT2831-#37
B9: bispecific antibody BM#16 against CD33 and CD123 (bispecific antibody, human IgG1)
chain 1: QVQLVESGGGSVQAGGSLRLSCAASGYTYSSTCIGWFRQAPGKDREGVAFAYTGGGVTYADSVKGRFTISQDNAKNTVHLIMNSLKPEDTAMYYCAAKTRGGCWAAAAFYNYWGQGTQVTVSS[human IgG1 Fc with T366W K370Y (EU numbers) left out here]
chain 2: QVQLVESGGGSVQAGGSLKLSCAASRFIFSRCGMGWFRQAPGKERELVSTISGDGTTFYADSVKGRFTISQHNAATTLYLQMNSLKLEDTAVYYCAADCYNRKYWGQGTQVTVSS[human IgG1 Fc with E357D T366S L368A Y407V (EU numbers) left out here]
notes: VHH-Fc heterodimer

T1 sequence (P08637 17-208 limits assumed): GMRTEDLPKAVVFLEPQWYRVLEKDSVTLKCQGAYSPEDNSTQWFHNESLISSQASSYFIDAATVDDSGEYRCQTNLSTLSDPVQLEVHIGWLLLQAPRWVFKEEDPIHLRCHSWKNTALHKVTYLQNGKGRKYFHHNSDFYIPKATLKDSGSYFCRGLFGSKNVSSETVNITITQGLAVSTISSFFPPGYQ

The first experiment addresses T1, human FCγRIIIa receptor (human, UniProt P08637 fragment, limits assumed).
T1 construct: Used in solution as the 'antigen' in BLI; also called FcγIIIa receptor
Briefly: BLI; Ratio against the hIgG (hIgG1) control, fits KD(hIgG)/KD(sample). As to the method: (§1) (3) Preparation of antigen working solution: 200 nM antigen (FCγRIIIa) in SD buffer was first prepared at and then serially diluted in 2 folds to prepare a total of 5 concentration gradients, in addition to which a zero concentration was prepared.
(§2) (11) Data analysis: related constants, such as KD, Kon, Koff, X2, Full R2 and the like were calculated in Data Analysis software.
(§3) In the examples of the present application, the modified bispecific antibody was subjected to BLI test to determine the affinity of the modified bispecific antibody to human FCγRIIIa.
Background: Biolayer interferometry detects binding as a change in optical thickness at a sensor tip.
Turning to B1, the Ratio came out at 1.26.

As to B2, the Ratio was 1.39.

B3: the Ratio came to 1.08.

As to B4, the Ratio came out at 1.25.

On to B5, for which the Ratio was found to be 0.97.

For B6, the Ratio was 1.21.

As for B7, the Ratio was found to be 1.92.

Take B8: the Ratio was found to be 1.21.

Take B9: the Ratio stood at 1.49.

The target in a further experiment is T1, human FCγRIIIa receptor. Briefly: BLI (Octet 96), antibody loaded on sensor, FCγRIIIa 200 nM and 2-fold dilutions in solution. How it is done:
as §1, §2, §3
B1 had a Kd of 0.0706 µM.

Consider B2, for which the affinity, expressed as Kd, was 0.0639 µM. The Kd values of the last two molecules are within 1.5-fold of each other.

B3 showed a Kd of 0.0818 µM.

In turn, B4 came in with a Kd of 0.0709 µM.

With B5, the Kd stood at 0.0913 µM.

B6 yielded a Kd of 0.073 µM.

With B7, the Kd stood at 0.0462 µM. This Kd lies about 1.6-fold lower than the previous one.

Consider B8, for which the Kd was found to be 0.0734 µM.

As to B9, the Kd came out at 0.0594 µM. The Kd values of the last two molecules are within 1.5-fold of each other.
